Test results published in patent US20240271082A1 (FZATA, published 2024).

Assays:
human TNF-α [1] = molecular target: T1, human TNF-α (human, UniProt P01375 in part); experiment: cell-based or functional assay
human TNF-α [2] = molecular target: T1, human TNF-α; experiment: specific binding EC50 compared with Humira
human TNF-α [3] = molecular target: T1, human TNF-α; experiment: specific binding EC50; method not given
human IL-17A = molecular target: T2, human IL-17A (human, UniProt Q16552 24-155); experiment: specific binding activity of yeast supernatant (FIG. 149)
Sequence of human IL-17A (Q16552 24-155 limits assumed): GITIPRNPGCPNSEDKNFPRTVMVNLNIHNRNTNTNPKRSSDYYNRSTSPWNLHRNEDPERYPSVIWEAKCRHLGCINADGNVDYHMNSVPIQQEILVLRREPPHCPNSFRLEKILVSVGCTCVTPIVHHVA
T2 construct: also called hIL-17A; hIL-17

human TNF-α [4] = molecular target: T1, human TNF-α; experiment: as above

T1 sequence (P01375 77-233 limits assumed): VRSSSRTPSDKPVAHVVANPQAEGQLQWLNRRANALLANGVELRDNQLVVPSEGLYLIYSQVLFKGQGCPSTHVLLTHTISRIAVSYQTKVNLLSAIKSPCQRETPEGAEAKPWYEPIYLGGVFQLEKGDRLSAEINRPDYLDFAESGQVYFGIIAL

B1: Anti-human TNF-α-VHH-Fc, A3 (Anti-hTNF-α-Fc) (Fc fusion)
chain: EVQLLESGGGLVQPGGSLRLSCAASGRTFSTYAMGWFRQAPGKEREFVATVDNDGFTMHADSVKGRFTISRDNSKNTLYLQMNSLRAEDTAVYYCAAGQYSKFVESYAYWGQGTLVTVSS[human IgG1 Fc not written out]
notes: The tie is indirect
IC50, neutralizing activity (human TNF-α [1]): 7 pM
fold lower EC50 than Humira (human TNF-α [2]): ~3 fold
EC50 (human TNF-α [3]): 0.141 nM

B2: FZ008_ahTNF-α-ahIL17A-Fc (VHH1-VHH2-Fc bi-specific antibody) (bispecific antibody, human IgG1)
chain: EVQLLESGGGLVQPGGSLRLSCAASGRTFSTYAMGWFRQAPGKEREFVATVDNDGFTMHADSVKGRFTISRDNSKNTLYLQMNSLRAEDTAVYYCAAGQYSKFVESYAYWGQGTLVTVSSGQAGQGGGGSGGGGSGGGGSLQQVQLVQSGGGLVQAGGSLRLSCAASGGTFATSPMGWLRQAPGKGTEFVAAISPSGGDRIYADSVKGRFTISRDNAGYFIYLQMNSLKPEDTAVYYCAVRRRFDGTSYYTGDYDSWGQGTLVTVSS[human IgG1 Fc not written out]
notes: Tested as yeast culture supernatant; also called VHH-VHH-Fc; FIC5
binding result (human IL-17A): binds
binding result (human TNF-α [4]): binds
